# Source: ChEMBL document CHEMBL4888484, “Replenishing the malaria drug discovery pipeline: Screening and hit evaluation of the MMV Hit Generation Library 1 (HGL1) against asexual blood stage Plasmodium falciparum ,using a nano luciferase reporter read-out” (2022)
# About 540 (0.36%) of roughly 150,000 compounds showed an effect of 50% or more. This is one part of the list.
# Tested on: Plasmodium falciparum
# Experiment: Primary screen in NF54 nanoGlo assay, in single point, at 2uM, 72h; a lower Z score goes with more inhibition
# Type: functional, Erythrocyte
# Settings: timepoint 72 hour
SMILES,% Inhibition,Z score
CCC[C@H](C)NC(=O)Cn1cc(C(F)(F)F)ccc1=O,3%,-0.58
Cc1cc(C)n(CCCS(=O)(=O)N(C)C)n1,-8%,1.4
CC1CCCCN1C(=O)N[C@@H]1COC[C@@H]1n1cc(CO)nn1 (stereo not given in full),-4%,0.64
O=C(COc1ccccc1F)Nc1ccc2c(c1)CCC(=O)N2,-10%,1.76
Cc1cc(C(=O)NCCN(C)S(C)(=O)=O)nc(C)n1,0%,0.02
CCOC(=O)[C@H]1CCCN(C(=O)Cn2cc(NC(=O)c3ccccc3F)cn2)C1,-8%,1.15
CCn1c(=O)c(-c2noc(C(=O)N3CCN(C4CCCCC4)CC3)n2)nn(-c2ccc(C)cc2)c1=O,7%,-1.25
COC(C)(C)C(=O)N1CCC(CO)(CCCc2ccccc2)CC1,-6%,0.81
O[C@@H]1COC2(CCN(Cc3ccc4c(c3)OCCO4)CC2)C1,-3%,0.58
CN(C[C@H]1COc2ccccc2O1)C(=O)c1ccc(Cl)o1,-3%,0.36
CCc1sc(C(=O)N(C)CC(N)=O)cc1C,-2%,0.23
CCCc1cc(C(=O)OCC)nn1C1CCN(S(=O)(=O)c2ccccc2C#N)CC1,-9%,1
O=C(CNc1ccc(Cl)cc1)N1CCC[C@H]1c1ccc2c(c1)OCCCO2,-10%,1.13
CC(=O)N1CCc2cccc(NC(=O)N(C)C3CCN(C)CC3C)c21 (stereo not given),0%,-0.01
CC(C)Cc1nc2nccc(-c3ccc4c(c3)OCCCO4)n2n1,-13%,2.38
Cc1[nH]c(-c2ncccn2)nc(=O)c1CC(=O)NC1CCCCC1C (stereo not given),-2%,0.16
O=C(O)C1CC2CCCCC2N1CC(=O)N1CCc2ccccc2C1 (stereo not given),-4%,0.65
CCN1CCC[C@H](NC(=O)c2cc(C)n(C)c2C)C1,-13%,1.66
CCOc1ccnc(NC2(CN3CCCCC3)CC2)n1,-11%,1.74
Cn1cc(S(=O)(=O)NCc2cscn2)cn1,-4%,0.56
CN(Cc1cc(-c2ccccc2)n[nH]1)C(=O)Cn1nnnc1N,-8%,0.82
CCC(C)(C)NC(=O)[C@H](C)S(=O)(=O)c1cccc(Cl)c1,-3%,0.69
O=C(Cc1cccc2ccccc12)N1CCC(c2ccsc2)CC1,-12%,1.76
CCOc1cc(C(=O)N2C3CCC2CC(CC(F)F)C3)on1 (stereo not given),-10%,1.2
C#Cc1ccc(C(=O)N[C@H]2CCc3c(nc(C)n3CCO)C2)cc1,15%,-1.9
CC[C@@H](C(=O)N(C)Cc1cn(CC)nc1C)n1cccn1,-8%,1.18
Cc1n[nH]c(C)c1CCC(=O)N1CC[C@@](O)(C2CCOCC2)[C@H](C)C1,-3%,0.48
CN([C@H]1CCN(c2ccccc2)C1=O)S(C)(=O)=O,-3%,0.34

SMILES,% Inhibition,Z score
Cc1ccc(OCCC(=O)N2CCC(c3ccnnc3)CC2)cc1C,-7%,0.95
COc1ccc(CNC(=O)c2cc(-c3ccc(OC)cc3)nc3n[nH]c(-c4ccc(F)cc4)c23)cc1,-7%,0.68
COc1ccc(Cc2nc(-c3ccc4c(c3)OCO4)n(CCO)n2)cc1,-22%,2.11
COC(=O)c1ccc(C(=O)N2CC[C@H](n3c(C)nc4ccccc43)C2)cc1,-31%,3.93
NC(=O)[C@@H]1C[C@H](Oc2ccccc2)CN1Cc1cccnc1,-14%,1.78
CN1CC[C@H](C(=O)N(Cc2ccc3c(c2)OCO3)C2(C)CCCC2)CC1=O,-15%,2.91
CCCC1(CCC)CCCN1C(=O)CCc1ccnc(C)n1,-15%,1.59
Cc1nccn1COC(=O)OC1CCCCC1,-3%,0.41
CC1C(O)CC2NC1c1ccccc1OCCOCCOc1ccccc12 (stereo not given),-4%,0.61
Cn1c(CCNC(=O)Nc2nccs2)nc2c(F)cccc21,-7%,0.99
CCn1cc(CN2CC[C@H]3C(=O)NCCCCCCN(Cc4ccncc4)[C@@H]3C2)c(C)n1,2%,-0.2
O=C(Nc1ccccc1OCCc1ccccn1)N1CCC(F)(F)CC1,-6%,1.16
COCc1nc(CCNC(=O)CC(C)C)no1,1%,-0.11
COc1cccc(CO[C@@H]2CN(C(=O)CC3CCCC3)CC(=O)N(Cc3ccccn3)C2)c1,-5%,0.85
Cc1ccc2ncc(CNc3nc(C4CC4)no3)n2c1,2%,-0.39
Cc1cnc(N2CCCC[C@H]2c2ncccn2)nc1,-9%,1.79
CN(C[C@@H]1OCCc2ccccc21)C(=O)CCc1ncccn1,-10%,1.38
COc1cc(NC(=O)N2CCN(c3c(F)cccc3F)CC2)ccn1,-14%,2.26
CN1CC[C@H]2CC[C@@H](C1)N2C(=O)Nc1cccc(Cl)c1,7%,-1.15
CS(=O)(=O)CC1(CC(=O)NCC2(Cc3ccccc3)CCC2)CC1,-1%,0.16
CC1(C)CC[C@H](CCNC(=O)Cn2ncc3cccnc32)OC1,-2%,0.44
CCc1onc(C)c1C(=O)Nc1nnc(C(C)C)[nH]1,-8%,0.77
CCOC(=O)C(C)C(C)NC(=O)c1cccc(O)c1OC(F)(F)F (stereo not given),0%,0.04
COCc1cc(=O)n(CC(=O)Nc2ccccc2OC)c(N2CCOCC2)n1,-9%,0.82
Cc1ccc2c(c1)N(CC(=O)N[C@@H](C)CCc1ccccc1)C=NS2(=O)=O,-14%,1.66
CC[C@@H](Cc1ccccc1)NS(=O)(=O)c1ccc2c(c1)CCN2C(=O)C1CCC1,-2%,0.34
CCCNC(=O)NC(=O)CNC1(C(=O)OC(C)(C)C)CCCC1,-6%,1.29
